Among the data in paper PMC6955252 are binding values, retold here.

Amino acid sequences for entries named in this document (tags omitted).
UniProt P63010: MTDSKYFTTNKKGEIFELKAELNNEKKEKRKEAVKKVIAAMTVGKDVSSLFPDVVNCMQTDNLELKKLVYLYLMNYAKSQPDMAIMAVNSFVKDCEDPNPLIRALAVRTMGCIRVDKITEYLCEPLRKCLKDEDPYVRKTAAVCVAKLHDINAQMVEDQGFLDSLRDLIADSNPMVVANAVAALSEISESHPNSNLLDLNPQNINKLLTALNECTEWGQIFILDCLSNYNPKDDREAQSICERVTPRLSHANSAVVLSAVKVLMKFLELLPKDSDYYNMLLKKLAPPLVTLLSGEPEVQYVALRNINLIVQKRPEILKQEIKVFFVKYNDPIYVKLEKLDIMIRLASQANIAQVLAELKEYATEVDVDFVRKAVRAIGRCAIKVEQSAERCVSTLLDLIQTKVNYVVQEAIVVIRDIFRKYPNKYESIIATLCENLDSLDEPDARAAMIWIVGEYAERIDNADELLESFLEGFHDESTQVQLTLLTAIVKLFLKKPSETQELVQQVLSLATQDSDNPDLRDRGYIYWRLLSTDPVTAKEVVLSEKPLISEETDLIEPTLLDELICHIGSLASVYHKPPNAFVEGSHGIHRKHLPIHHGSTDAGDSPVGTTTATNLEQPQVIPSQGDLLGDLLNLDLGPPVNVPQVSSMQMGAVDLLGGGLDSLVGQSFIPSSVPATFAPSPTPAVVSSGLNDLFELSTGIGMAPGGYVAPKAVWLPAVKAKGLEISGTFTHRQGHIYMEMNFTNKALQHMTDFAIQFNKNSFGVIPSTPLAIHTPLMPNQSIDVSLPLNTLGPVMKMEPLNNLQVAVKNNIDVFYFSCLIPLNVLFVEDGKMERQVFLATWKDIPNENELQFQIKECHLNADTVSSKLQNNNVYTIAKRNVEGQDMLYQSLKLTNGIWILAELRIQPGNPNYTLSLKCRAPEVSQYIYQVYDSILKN
UniProt P49407: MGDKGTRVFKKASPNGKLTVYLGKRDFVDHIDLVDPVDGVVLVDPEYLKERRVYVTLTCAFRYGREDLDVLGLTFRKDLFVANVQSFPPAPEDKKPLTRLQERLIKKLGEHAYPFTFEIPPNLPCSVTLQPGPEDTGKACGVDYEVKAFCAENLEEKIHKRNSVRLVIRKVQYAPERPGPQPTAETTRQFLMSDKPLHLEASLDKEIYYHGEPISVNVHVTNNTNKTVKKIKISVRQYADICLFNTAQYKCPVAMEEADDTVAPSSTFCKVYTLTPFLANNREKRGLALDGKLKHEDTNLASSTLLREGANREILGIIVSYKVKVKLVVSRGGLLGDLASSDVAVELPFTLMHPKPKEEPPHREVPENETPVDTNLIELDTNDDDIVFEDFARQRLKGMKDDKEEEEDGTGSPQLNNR
UniProt P43250: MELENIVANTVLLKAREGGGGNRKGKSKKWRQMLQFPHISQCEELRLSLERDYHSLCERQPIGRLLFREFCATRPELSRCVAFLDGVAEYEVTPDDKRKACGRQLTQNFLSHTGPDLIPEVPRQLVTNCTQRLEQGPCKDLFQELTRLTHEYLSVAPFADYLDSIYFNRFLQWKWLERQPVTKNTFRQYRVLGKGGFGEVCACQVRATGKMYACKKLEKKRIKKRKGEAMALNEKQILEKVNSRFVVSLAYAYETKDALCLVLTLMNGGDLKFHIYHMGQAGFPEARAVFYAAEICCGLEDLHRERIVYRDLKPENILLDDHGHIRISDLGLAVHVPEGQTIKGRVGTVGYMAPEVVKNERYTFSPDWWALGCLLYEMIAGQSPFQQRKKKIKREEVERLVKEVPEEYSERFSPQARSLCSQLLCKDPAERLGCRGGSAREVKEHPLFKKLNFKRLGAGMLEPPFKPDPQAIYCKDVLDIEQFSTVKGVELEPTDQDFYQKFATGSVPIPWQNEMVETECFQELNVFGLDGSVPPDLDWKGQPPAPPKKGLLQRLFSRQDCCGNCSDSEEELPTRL
UniProt P25098: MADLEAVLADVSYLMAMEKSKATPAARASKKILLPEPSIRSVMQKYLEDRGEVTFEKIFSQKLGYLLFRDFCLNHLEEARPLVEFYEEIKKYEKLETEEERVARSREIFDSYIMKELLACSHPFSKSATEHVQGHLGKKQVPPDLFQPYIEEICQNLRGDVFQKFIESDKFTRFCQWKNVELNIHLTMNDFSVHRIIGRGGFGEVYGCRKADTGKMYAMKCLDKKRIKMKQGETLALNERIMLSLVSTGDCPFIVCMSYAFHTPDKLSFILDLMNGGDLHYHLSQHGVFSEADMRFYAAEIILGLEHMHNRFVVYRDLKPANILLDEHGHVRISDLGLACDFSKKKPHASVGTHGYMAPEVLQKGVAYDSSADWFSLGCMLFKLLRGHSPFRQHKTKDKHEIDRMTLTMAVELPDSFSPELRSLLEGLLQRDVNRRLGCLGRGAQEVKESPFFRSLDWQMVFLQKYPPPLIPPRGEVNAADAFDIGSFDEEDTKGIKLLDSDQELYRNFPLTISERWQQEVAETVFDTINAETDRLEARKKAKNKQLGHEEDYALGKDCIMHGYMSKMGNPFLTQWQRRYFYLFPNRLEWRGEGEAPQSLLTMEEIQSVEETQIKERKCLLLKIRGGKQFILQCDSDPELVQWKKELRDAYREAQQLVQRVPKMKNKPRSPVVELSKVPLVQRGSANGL
UniProt P34947: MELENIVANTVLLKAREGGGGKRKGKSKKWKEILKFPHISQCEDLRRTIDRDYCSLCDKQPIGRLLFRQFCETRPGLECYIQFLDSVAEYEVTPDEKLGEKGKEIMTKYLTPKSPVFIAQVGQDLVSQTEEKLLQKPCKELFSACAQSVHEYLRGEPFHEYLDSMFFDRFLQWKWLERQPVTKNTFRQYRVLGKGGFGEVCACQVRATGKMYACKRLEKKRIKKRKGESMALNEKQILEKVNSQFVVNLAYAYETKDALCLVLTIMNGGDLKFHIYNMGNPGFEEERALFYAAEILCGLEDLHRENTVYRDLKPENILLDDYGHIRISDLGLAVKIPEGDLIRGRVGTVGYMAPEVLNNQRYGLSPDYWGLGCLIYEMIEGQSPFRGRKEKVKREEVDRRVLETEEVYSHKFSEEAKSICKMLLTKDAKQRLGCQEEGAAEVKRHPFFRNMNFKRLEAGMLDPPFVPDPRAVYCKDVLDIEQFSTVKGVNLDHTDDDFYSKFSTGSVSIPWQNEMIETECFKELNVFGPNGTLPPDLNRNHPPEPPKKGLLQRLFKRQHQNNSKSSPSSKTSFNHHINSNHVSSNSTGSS

Results are given in words; binding and its absence hold for the method and conditions named. Binding seen in cells or lysates may run through a third protein. Some entries that bind do so weakly or less than the wild type. For part of these data: Tags and fused reporters may be left off the sequences shown.

In one experiment the target is AP2B1-VN (β2-subunit of the AP-2 complex fused with Venus N-terminal residues 1 to 173) (UniProt P63010). Kind of experiment: split reporter.
For “β-arrestin1-VC (β-arrestin1 fused with Venus C-terminal residues 174 to 239) (from UniProt P49407 1-418)”, the binding result is “binds”.

The next experiment deals with T1, FFAR2-VN (free fatty acid receptor 2 fused with Venus N-terminal residues 1 to 173) (human) (UniProt O15552).
T1 sequence: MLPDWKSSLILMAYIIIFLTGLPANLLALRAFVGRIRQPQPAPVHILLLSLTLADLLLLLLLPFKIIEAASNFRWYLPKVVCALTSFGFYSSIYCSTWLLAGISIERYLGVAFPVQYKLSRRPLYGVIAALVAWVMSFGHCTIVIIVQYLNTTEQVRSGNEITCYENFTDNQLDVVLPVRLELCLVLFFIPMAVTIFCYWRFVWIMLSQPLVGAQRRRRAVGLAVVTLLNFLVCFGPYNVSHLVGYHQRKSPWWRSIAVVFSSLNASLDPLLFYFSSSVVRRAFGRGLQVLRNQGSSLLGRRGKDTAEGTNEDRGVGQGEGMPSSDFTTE
Kind of experiment: split reporter.
For the substance “GRK6-VC (G protein-coupled receptor kinase 6 fused with Venus C-terminal residues 174 to 239) (from UniProt P43250 1-576) (enzyme)”, the binding result is recorded as “binds”.
On the same count and under the same terms, the entry for “AP2B1-VC (β2-subunit of the AP-2 complex fused with Venus C-terminal residues 174 to 239) (from UniProt P63010 1-937)” is “no binding”.
The same measure, in the same setting: next, “β-arrestin1-VC (β-arrestin1 fused with Venus C-terminal residues 174 to 239) (from UniProt P49407 1-418)”: “binds”.
The same measure, in the same setting: the entry for “GRK2-VC (G protein-coupled receptor kinase 2 fused with Venus C-terminal residues 174 to 239) (from UniProt P25098 1-689) (enzyme)” is “binds”; for “GRK5-VC (G protein-coupled receptor kinase 5 fused with Venus C-terminal residues 174 to 239) (from UniProt P34947 1-590) (enzyme)” it is “binds”.
